# Laboratory results taken from paper PMC4336329 (PLoS ONE, 2015).
# Out of some 310,000 compounds screened, about 2,200 (0.71%) showed an effect of 50% or more. Effects have a minus sign here. The list shows a part of the results.
# Molecular target: human ether-à-go-go-related gene (hERG) potassium channel (human, UniProt Q12809)
# Assay: primary screen, population patch clamp on CHO cells stably expressing hERG
# Chain of human ether-à-go-go-related gene (hERG) potassium channel (Q12809 whole entry, looked up): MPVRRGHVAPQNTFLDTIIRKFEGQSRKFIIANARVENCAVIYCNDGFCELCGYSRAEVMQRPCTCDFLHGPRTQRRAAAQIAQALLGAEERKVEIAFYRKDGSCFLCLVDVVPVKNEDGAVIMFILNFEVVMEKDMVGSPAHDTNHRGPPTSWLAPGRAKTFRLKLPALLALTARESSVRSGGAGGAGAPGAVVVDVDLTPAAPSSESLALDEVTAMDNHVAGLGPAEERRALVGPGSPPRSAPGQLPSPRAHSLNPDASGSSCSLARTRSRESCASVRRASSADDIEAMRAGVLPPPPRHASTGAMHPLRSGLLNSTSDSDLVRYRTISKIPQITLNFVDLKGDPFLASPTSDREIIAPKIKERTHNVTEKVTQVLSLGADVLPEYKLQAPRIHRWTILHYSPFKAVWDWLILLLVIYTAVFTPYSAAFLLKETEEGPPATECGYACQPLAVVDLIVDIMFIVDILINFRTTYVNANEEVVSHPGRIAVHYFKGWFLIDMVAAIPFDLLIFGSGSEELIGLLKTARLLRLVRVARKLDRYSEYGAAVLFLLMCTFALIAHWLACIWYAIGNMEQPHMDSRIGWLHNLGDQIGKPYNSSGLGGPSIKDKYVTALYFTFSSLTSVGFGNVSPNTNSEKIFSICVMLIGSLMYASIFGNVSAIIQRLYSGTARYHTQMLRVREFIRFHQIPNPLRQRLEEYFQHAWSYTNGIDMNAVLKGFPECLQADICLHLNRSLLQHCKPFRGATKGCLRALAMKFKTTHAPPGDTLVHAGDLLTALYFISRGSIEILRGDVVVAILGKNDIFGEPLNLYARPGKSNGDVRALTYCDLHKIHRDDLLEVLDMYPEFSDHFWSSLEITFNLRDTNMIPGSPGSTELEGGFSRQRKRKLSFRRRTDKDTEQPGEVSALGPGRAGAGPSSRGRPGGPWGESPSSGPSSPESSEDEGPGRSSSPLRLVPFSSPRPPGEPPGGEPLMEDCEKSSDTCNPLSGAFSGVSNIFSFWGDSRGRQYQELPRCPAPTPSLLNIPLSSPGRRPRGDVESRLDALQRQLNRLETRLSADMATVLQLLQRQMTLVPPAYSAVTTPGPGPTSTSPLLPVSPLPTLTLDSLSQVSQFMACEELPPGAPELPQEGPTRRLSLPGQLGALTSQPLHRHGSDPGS
row,SMILES,"hERG current change (%, negative = inhibition) at 1uM"
1,CCOC(=O)c1sc(NC(=O)COC(=O)CNC(=O)C2CCCCC2)c(C(=O)OCC)c1C,14.6%
2,COCCCN1C(=O)C2C(C(=O)Nc3cc(C)cc(C)c3)C3C=CC2(O3)C1C(=O)NC1CCCCC1 (centres unmarked),10.9%
3,COc1ccc(CCNC(=O)CC2SC(=Nc3cc(C)cc(C)c3)NC2=O)cc1OC (centres unmarked),6.5%
4,COC(=O)CCSCc1cn2cc(Cl)ccc2n1,21.1%
5,CCOC(=O)C1(Cc2ccc(OC)cc2)CCN(C(=O)CN2CCCCC2=O)CC1,11.5%
6,Cc1cc(=O)n2nc(-c3ccccc3)sc2c1C#N,2.21%
7,COc1ccc(Cl)cc1NC(=O)CCNC(=O)Cn1ccc2ccccc2c1=O,9.89%
8,O=C(CCC(=O)c1ccc(Oc2ccccc2)cc1)Nc1ccc(C(=O)O)cc1,19.6%
9,CCc1ccc(/C=N/NC(=O)c2cc(C)on2)s1,5.45%
10,COc1ccc(C2=NN(C(=O)CCC(=O)O)C(c3ccc(OC)c(OC)c3)C2)cc1 (centres unmarked),10.2%
11,Cc1ccc(N2CCN(S(=O)(=O)c3ccc4c(c3)NC(=O)C(C)C(=O)N4)CC2C)cc1 (centres unmarked),13.5%
12,COc1cccc(C(c2nnnn2CCc2ccccc2)N2CCN(c3ccccc3)CC2)c1OC (centres unmarked),4.6%
13,O=C(Nc1cccc(Cl)c1)c1cc(F)cc2c1OCOC2,9.24%
14,CCOC(=O)c1cn2nc(N3CCCC3)ccc2n1,10.5%
15,COc1cccc(Oc2c(C)oc3c(CN4CCCC4)c(O)ccc3c2=O)c1,-3.38%
16,CN1CCN(C(=S)c2cn(Cc3ccccc3)c3ccccc23)CC1,8.36%
17,COc1ccc(Cl)cc1NC(=O)CSc1nc(-c2ccccc2)cc(=O)[nH]1,1.34%
18,COc1ccc(C(=O)N[C@H](C(=O)Nc2ccc(S(=O)(=O)N3CCOCC3)cc2)C(C)C)cc1,3.97%
19,CC(=O)Oc1ccc(C(=O)O)c(OC(C)=O)c1,12.3%
20,CCOc1cc(/C=N\NC(=O)OC)ccc1OC(=O)c1ccco1,11.4%
21,COc1cccc(NC(=O)CN(C)C(=O)/C=C/c2cc(OC)ccc2OC)c1,-11.8%
22,CCOc1ccc(CNC(=O)c2ccc(Sc3ccc(Cl)cc3)c(NC(C)=O)c2)cc1OC,6.22%
23,Cc1cccc(C)c1NC(=O)CN(C)C(=O)c1ccc(-c2cccc(C(F)(F)F)c2)o1,6.2%
